These results are taken from publication PMC7041945, “Misfolded proteins bind and activate death receptor 5 to trigger apoptosis during unresolved endoplasmic reticulum stress” (eLife, 2020).

Chains of the proteins cited; added tags and fusions are not shown. Residues count along the entry.
UniProt O14763, residues 56-440: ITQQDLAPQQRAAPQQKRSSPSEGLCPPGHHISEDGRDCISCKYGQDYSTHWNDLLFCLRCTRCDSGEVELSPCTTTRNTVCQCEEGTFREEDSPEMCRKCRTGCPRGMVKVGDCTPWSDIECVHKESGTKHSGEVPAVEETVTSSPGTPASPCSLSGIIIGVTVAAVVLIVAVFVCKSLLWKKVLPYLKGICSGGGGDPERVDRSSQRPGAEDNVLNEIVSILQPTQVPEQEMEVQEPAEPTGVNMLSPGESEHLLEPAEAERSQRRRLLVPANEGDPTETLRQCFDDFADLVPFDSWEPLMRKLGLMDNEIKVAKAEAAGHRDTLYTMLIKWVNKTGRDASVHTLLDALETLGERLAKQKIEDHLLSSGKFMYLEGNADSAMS
UniProt Q13158: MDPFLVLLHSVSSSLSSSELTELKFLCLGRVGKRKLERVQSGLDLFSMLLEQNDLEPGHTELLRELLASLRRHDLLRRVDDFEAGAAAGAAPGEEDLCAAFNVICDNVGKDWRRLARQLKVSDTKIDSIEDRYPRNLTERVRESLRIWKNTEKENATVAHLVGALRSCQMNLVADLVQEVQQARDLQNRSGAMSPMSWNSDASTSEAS
UniProt Q14790: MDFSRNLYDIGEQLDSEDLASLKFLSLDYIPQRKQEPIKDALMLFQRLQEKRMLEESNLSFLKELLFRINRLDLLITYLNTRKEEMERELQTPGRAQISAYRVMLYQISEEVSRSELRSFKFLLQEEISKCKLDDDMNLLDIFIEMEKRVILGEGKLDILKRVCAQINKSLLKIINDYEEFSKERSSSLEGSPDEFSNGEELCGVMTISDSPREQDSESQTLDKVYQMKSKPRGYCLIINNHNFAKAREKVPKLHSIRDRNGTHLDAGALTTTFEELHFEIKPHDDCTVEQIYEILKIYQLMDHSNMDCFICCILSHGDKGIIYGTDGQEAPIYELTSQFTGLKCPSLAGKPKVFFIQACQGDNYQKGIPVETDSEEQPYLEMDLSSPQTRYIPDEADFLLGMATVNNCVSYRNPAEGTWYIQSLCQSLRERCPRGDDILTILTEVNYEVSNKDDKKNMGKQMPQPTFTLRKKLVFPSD

Experiment [1] has as its target T1, myelin protein zero (MPZ) tagged with a C-terminal monomeric EGFP (human) (UniProt P25189).
T1 sequence: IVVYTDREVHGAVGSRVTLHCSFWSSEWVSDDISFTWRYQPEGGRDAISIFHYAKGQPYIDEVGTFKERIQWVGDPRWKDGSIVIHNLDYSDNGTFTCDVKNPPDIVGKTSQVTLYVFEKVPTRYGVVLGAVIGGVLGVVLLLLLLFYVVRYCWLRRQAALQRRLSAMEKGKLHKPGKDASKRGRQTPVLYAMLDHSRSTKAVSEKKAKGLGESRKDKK
Nature of the experiment: co-IP; GFP-Trap magnetic agarose beads, lysates of HCT116 24 hr after transfection; 30 mM HEPES pH 7.2, 150 mM NaCl, 1% Triton X-100; 4 hr at 4°C; immunoblot.

Experiment [2] concerns the target death receptor 5 (DR5), endogenous (human (endogenous in HCT116)) (UniProt O14763). Nature of the experiment: co-IP; immunoprecipitation of DR5 with anti-DR5 mAb 5C7-conjugated agarose beads from lysates of HCT116 transfected with MPZ-GFP or the empty vector; blotted for DR5, MPZ-GFP, FADD.

No constants are given. Whether binding was seen depends on the method and setting. In cells and extracts the contact can be indirect. Some entries that bind do so weakly or less than the wild type. For part of these data: Sequences can lack the tags named with a protein.

Turning to “FADD, endogenous (from UniProt Q13158 1-208)”, the binding entry in experiment [1] and in experiment [2] was “binds” throughout. Take “caspase 8, endogenous (from UniProt Q14790 1-479) (enzyme)”: the binding result in experiment [1] is given as “binds”.
